Assay results reported in paper PMC3972091.
Read-outs that look alike come from different tables or passages of the source. These are yes or no findings as the source states them, for the method shown. In cells and extracts the contact can be indirect. Some results given as binding are weak or reduced against the parent protein; the word gives no strength. For some of these results: Tags and fused reporters may be left off the sequences shown.

Chains of the proteins cited; added tags and fusions are not shown.
UniProt P40222: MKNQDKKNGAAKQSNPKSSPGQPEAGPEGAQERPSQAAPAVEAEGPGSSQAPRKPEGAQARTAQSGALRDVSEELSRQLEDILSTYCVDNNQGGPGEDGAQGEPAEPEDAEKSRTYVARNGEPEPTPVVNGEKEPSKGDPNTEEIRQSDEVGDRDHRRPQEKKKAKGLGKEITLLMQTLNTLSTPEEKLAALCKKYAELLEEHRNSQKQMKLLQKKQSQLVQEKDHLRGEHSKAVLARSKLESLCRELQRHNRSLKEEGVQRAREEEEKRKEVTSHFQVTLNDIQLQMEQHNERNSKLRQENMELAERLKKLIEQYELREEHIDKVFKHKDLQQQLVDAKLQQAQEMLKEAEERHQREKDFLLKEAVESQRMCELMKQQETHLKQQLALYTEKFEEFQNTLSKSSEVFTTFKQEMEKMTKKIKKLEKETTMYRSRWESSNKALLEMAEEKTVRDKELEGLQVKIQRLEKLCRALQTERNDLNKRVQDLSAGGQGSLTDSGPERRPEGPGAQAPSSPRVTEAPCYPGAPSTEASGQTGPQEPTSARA
UniProt Q13596: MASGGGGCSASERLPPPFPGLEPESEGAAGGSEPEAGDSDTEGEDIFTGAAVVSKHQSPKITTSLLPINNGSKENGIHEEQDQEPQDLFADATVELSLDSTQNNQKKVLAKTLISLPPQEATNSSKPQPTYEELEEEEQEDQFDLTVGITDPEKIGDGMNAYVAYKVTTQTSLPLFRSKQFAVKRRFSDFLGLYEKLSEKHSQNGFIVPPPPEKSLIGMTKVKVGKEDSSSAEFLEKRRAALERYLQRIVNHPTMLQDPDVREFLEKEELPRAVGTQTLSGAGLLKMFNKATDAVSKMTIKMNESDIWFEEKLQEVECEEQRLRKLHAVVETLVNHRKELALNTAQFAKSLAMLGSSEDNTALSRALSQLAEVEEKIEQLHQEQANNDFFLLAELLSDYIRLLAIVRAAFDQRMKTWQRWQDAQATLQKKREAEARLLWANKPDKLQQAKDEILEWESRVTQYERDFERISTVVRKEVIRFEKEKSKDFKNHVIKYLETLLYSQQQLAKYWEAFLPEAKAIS

T1: HA-SNX4 (human) (UniProt O95219)
T1 sequence: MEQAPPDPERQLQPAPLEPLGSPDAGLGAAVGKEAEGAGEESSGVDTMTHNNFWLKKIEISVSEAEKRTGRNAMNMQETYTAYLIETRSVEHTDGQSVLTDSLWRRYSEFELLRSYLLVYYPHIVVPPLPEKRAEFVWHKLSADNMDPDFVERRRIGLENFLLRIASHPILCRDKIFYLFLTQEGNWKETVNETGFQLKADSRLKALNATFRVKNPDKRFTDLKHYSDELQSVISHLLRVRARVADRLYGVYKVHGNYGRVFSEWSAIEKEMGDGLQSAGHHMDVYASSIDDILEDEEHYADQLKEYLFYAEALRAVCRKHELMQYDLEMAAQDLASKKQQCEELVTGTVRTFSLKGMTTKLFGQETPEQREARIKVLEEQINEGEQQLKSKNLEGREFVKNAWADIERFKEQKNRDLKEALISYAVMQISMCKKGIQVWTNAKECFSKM

B1: GFP-SNX4 (protein, UniProt O95219 1-450)
chain: MEQAPPDPERQLQPAPLEPLGSPDAGLGAAVGKEAEGAGEESSGVDTMTHNNFWLKKIEISVSEAEKRTGRNAMNMQETYTAYLIETRSVEHTDGQSVLTDSLWRRYSEFELLRSYLLVYYPHIVVPPLPEKRAEFVWHKLSADNMDPDFVERRRIGLENFLLRIASHPILCRDKIFYLFLTQEGNWKETVNETGFQLKADSRLKALNATFRVKNPDKRFTDLKHYSDELQSVISHLLRVRARVADRLYGVYKVHGNYGRVFSEWSAIEKEMGDGLQSAGHHMDVYASSIDDILEDEEHYADQLKEYLFYAEALRAVCRKHELMQYDLEMAAQDLASKKQQCEELVTGTVRTFSLKGMTTKLFGQETPEQREARIKVLEEQINEGEQQLKSKNLEGREFVKNAWADIERFKEQKNRDLKEALISYAVMQISMCKKGIQVWTNAKECFSKM
B2: GFP-SNX4 (292–450) (domain or fragment, UniProt O95219 292-450)
chain: DILEDEEHYADQLKEYLFYAEALRAVCRKHELMQYDLEMAAQDLASKKQQCEELVTGTVRTFSLKGMTTKLFGQETPEQREARIKVLEEQINEGEQQLKSKNLEGREFVKNAWADIERFKEQKNRDLKEALISYAVMQISMCKKGIQVWTNAKECFSKM
B3: GFP-SNX4 (residues 1–402) (domain or fragment, UniProt O95219 1-402)
chain: MEQAPPDPERQLQPAPLEPLGSPDAGLGAAVGKEAEGAGEESSGVDTMTHNNFWLKKIEISVSEAEKRTGRNAMNMQETYTAYLIETRSVEHTDGQSVLTDSLWRRYSEFELLRSYLLVYYPHIVVPPLPEKRAEFVWHKLSADNMDPDFVERRRIGLENFLLRIASHPILCRDKIFYLFLTQEGNWKETVNETGFQLKADSRLKALNATFRVKNPDKRFTDLKHYSDELQSVISHLLRVRARVADRLYGVYKVHGNYGRVFSEWSAIEKEMGDGLQSAGHHMDVYASSIDDILEDEEHYADQLKEYLFYAEALRAVCRKHELMQYDLEMAAQDLASKKQQCEELVTGTVRTFSLKGMTTKLFGQETPEQREARIKVLEEQINEGEQQLKSKNLEGREFVKN
B4: GFP-SNX4 (residues 1–189) (domain or fragment, UniProt O95219 1-189)
chain: MEQAPPDPERQLQPAPLEPLGSPDAGLGAAVGKEAEGAGEESSGVDTMTHNNFWLKKIEISVSEAEKRTGRNAMNMQETYTAYLIETRSVEHTDGQSVLTDSLWRRYSEFELLRSYLLVYYPHIVVPPLPEKRAEFVWHKLSADNMDPDFVERRRIGLENFLLRIASHPILCRDKIFYLFLTQEGNWKE

Assays:
HA-SNX4 (human) = target: T1, HA-SNX4 (human); experiment: co-IP; HEK293 cells expressing HA-SNX4; lysate (1% NP-40, 20 mM Tris/HCl pH 8.0, 137 mM NaCl, 10% glycerol) immunoprecipitated with anti-HA antibody or nonimmune IgG on protein G sepharose, 4°C, 2 h; blotted with anti-HA and anti-α-taxilin (endogenous α-taxilin)
myc-α-taxilin [1] = target: myc-α-taxilin (UniProt P40222); experiment: co-IP; HEK293 cells co-expressing myc-α-taxilin and a GFP-SNX construct; lysate (1% NP-40, 20 mM Tris/HCl pH 8.0, 137 mM NaCl, 10% glycerol) immunoprecipitated with anti-myc antibody or nonimmune IgG on protein G sepharose, 4°C, 2 h; blotted with anti-myc and anti-GFP
myc-α-taxilin [2] = target: myc-α-taxilin (UniProt P40222); experiment: as above; remark: listed apart in the source

| Molecule | binding (myc-α-taxilin [2]) | other results |
| --- | --- | --- |
| endogenous α-taxilin (from UniProt P40222 1-546) | – | binding (HA-SNX4 (human)): binds |
| GFP-SNX1 (from UniProt Q13596 1-522) | – | binding (myc-α-taxilin [1]): binds weakly |
| B1 | binds | – |
| B2 | binds | – |
| B3 | no binding | – |
| B4 | no binding | – |
| AWADIERFKEQKNRDLKEALISYAVMQISMCKKGIQVWTNAKECFSKM (domain or fragment, UniProt O95219 403-450) [GFP-SNX4 (403–450)] | no binding | – |
